Source: PMC9911399, “Two distinct binding modes provide the RNA-binding protein RbFox with extraordinary sequence specificity”
Changes are numbered by the printed parent chain; changes in the protein carry UniProt numbers. This is one part of the list.

T1: RBFOX1 RRM (Homo sapiens, UniProt Q9NWB1 109-208)
T1 sequence: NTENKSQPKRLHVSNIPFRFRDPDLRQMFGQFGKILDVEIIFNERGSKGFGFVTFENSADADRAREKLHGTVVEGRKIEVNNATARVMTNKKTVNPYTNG

B1: GAAGCCA (DNA:RNA)
RNA: GGGAGACCGGAAUUCAGAUUGUCCGAAGCCAUUAAAUCCCGUCGUAGCCACCA
DNA 1: CAATCTGAATTCCGGTCTCCC
DNA 2: TGGTGGCTACGACGGGATT
B2: ACUACGU (DNA:RNA)
RNA: B1 RNA with G25A, A26C, A27U, G28A, C30G, A31U
DNA 1: CAATCTGAATTCCGGTCTCCC
DNA 2: TGGTGGCTACGACGGGATT
B3: UUUGUCA (DNA:RNA)
RNA: B1 RNA with G25U, A26U, A27U, C29U
DNA 1: CAATCTGAATTCCGGTCTCCC
DNA 2: TGGTGGCTACGACGGGATT
B4: UGUACCU (DNA:RNA)
RNA: B1 RNA with G25U, A26G, A27U, G28A, A31U
DNA 1: CAATCTGAATTCCGGTCTCCC
DNA 2: TGGTGGCTACGACGGGATT
B5: ACCGACG (DNA:RNA)
RNA: B1 RNA with G25A, A26C, A27C, C29A, A31G
DNA 1: CAATCTGAATTCCGGTCTCCC
DNA 2: TGGTGGCTACGACGGGATT
B6: AGAAGAC (DNA:RNA)
RNA: B1 RNA with G25A, A26G, G28A, C29G, C30A, A31C
DNA 1: CAATCTGAATTCCGGTCTCCC
DNA 2: TGGTGGCTACGACGGGATT
B7: GCUCAUG (DNA:RNA)
RNA: B1 RNA with A26C, A27U, G28C, C29A, C30U, A31G
DNA 1: CAATCTGAATTCCGGTCTCCC
DNA 2: TGGTGGCTACGACGGGATT
B8: UCUCGGG (DNA:RNA)
RNA: GGGAGACCGGAAUUCAGAUUGUCCUCUCGGGUUAAAUCCCGUCGUAGCCACCA
DNA 1: CAATCTGAATTCCGGTCTCCC
DNA 2: TGGTGGCTACGACGGGATT
B9: CCUGUAG (DNA:RNA)
RNA: B8 RNA with U25C, C28G, G29U, G30A
DNA 1: CAATCTGAATTCCGGTCTCCC
DNA 2: TGGTGGCTACGACGGGATT

molecular target: T1, RBFOX1 RRM; test: EMSA; HiTS-Eq, 1 nM pool, 10 min; buffer printed only for the single-RNA assays: 10 mM Tris pH 7.5, 150 mM NaCl, 3.4 mM EDTA, 0.001% NP-40, 30 C; conditions: tags: His6 N-terminal (pET28a); label: 5' 32P
In short: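 A pool of RNA with 7 randomized nucleotides, 5′-radiolabelled and with DNA-annealed flanks, was equilibrated at 1 nM for 10 min in 50 µL with purified RbFox RRM, wild type or mutant, across increasing protein concentrations. Free RNA was separated by 8% native PAGE, excised, reverse-transcribed, barcoded by PCR and sequenced. Relative association constants were obtained from read-count changes of each RNA species versus the control reaction and normalised to the cognate motif.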

**Q.** For B1, which binding signal is on record?
**A.** 0.00429 KA relative to UGCAUGU

**Q.** B2 was tested. Which binding signal did it give?
**A.** 0.00446 KA relative to UGCAUGU

**Q.** With B3 as the binder, how does the binding signal read?
**A.** 0.0139 KA relative to UGCAUGU

**Q.** With B4 as the binder, how does the binding signal read?
**A.** 0.00778 KA relative to UGCAUGU

**Q.** How did the binding signal turn out when B5 was run?
**A.** 0.00342 KA relative to UGCAUGU

**Q.** How did the binding signal turn out when B6 was run?
**A.** 0.00541 KA relative to UGCAUGU

**Q.** For B7, which binding signal is on record?
**A.** 0.0119 KA relative to UGCAUGU

**Q.** How did the binding signal turn out when B8 was run?
**A.** 0.0108 KA relative to UGCAUGU

**Q.** How did the binding signal turn out when B9 was run?
**A.** 0.00969 KA relative to UGCAUGU
